Assay results: article PMC4336329 (PLoS ONE, 2015)
Out of some 310,000 compounds screened, about 14,000 (4.5%) showed an effect of 50% or more. The effect is printed as a negative number. This is one part of the list.

molecular target: human ether-à-go-go-related gene (hERG) potassium channel (human, UniProt Q12809); assay: primary screen, population patch clamp on CHO cells stably expressing hERG
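Also: peak tail current of the secondary pulse compared with the same well before compound.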

human ether-à-go-go-related gene (hERG) potassium channel, sequence (Q12809 whole entry, looked up): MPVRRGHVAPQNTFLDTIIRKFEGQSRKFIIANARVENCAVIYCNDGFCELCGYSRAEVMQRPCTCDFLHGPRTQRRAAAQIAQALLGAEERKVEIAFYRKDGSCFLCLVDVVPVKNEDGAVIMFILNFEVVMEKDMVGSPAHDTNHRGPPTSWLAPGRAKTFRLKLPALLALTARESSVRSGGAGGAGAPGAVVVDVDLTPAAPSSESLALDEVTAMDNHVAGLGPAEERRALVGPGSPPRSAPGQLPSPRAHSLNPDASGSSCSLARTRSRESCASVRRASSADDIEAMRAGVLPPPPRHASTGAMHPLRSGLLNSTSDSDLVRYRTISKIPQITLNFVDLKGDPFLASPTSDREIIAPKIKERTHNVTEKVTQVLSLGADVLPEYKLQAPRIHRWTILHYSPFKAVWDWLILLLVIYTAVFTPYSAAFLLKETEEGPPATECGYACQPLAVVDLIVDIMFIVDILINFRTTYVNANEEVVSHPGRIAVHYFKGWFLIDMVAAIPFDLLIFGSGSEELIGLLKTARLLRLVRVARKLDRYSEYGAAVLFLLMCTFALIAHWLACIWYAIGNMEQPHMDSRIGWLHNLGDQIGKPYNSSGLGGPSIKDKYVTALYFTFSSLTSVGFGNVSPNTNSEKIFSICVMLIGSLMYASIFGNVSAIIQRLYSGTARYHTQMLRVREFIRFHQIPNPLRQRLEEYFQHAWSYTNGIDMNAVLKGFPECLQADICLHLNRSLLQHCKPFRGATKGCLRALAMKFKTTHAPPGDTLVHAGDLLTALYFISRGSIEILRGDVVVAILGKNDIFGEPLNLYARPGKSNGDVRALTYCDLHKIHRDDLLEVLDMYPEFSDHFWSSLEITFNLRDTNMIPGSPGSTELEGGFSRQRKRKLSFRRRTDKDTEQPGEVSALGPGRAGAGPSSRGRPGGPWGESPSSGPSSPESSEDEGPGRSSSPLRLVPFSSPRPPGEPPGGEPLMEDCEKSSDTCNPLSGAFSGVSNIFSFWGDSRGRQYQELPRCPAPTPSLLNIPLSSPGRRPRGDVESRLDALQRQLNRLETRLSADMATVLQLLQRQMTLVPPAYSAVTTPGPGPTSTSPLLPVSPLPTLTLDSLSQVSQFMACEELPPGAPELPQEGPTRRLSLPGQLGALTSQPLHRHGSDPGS

Compound	hERG current change (%, negative = inhibition) at 10uM
CC(=O)c1ccc(OCCCC(=O)n2nnc3ccccc32)cc1	36%
C=CCn1c(NCCO)nc2c1c(=O)n(C)c(=O)n2C	9.07%
CC/C(Cc1ccccc1)=N/NC(=O)CCn1nnc2ccccc21	2.05%
CCOC(=O)C1=C(C)NC2=C(C(=O)CC(c3ccc(OC)c(OC)c3)C2)C1c1ccc(C)o1 (stereo not drawn)	-24.8%
CN(CC(=O)Nc1ccc(F)c(F)c1F)C(=O)C1=COCCO1	16.1%
O=C(CCCC(=O)N(CC(=O)NC1CCCC1)C1CCCC1)Nc1ccccn1	4.33%
CCn1c(C)csc1=NC(=O)c1ccccc1	-6.7%
CN(c1ccccc1)S(=O)(=O)c1cccc(NC(=O)c2cccc(C#N)c2)c1	-40.2%
CN1CCN(C(=O)C23CCC(C)(C(=O)C2Br)C3(C)C)CC1 (stereo not drawn)	1.95%
C/C(=N\Nc1nc(N)cc(Cl)n1)c1ccc(F)cc1	-7.64%
CCN(CC)S(=O)(=O)c1cc(NC(=O)C(=O)c2c(-c3ccccc3)cc3ccccn23)ccc1C	-6.68%
CCCOc1ccc(/C(O)=C2/C(=O)C(=O)N(CCCn3ccnc3)C2c2ccc(C)o2)cc1 (stereo not drawn)	9.62%
COc1cccc(/C=N/NC(=O)CSc2nnc(C)n2-c2ccccc2)c1OC	-5.39%
CCCS(=O)(=O)Nc1cccc(-c2ccc3nnc(C)n3n2)c1	5.7%
CC(=O)Nn1cnc2c(c1=O)C1(CCCC1)Cc1ccccc1-2	-4.19%
CCN(Cc1ccccc1)C(=O)c1cccc(S(=O)(=O)N2CCN(Cc3ccccc3)CC2)c1	-19.6%
O=C(O)CSCC(=O)NCc1ccc(Cl)cc1	-0.915%
CCOc1ccc(Cl)cc1S(=O)(=O)N1CCC(C(=O)NC2CC2)CC1	-7.55%
CC1CCCCN1C(=S)NCc1ccccc1 (stereo not drawn)	3.27%
O=C(Cn1cnc2c(oc3ccccc32)c1=O)N1CCN(c2ccccc2)CC1	9.97%
Cc1nc2c(cnn2-c2ccccc2)c(=O)n1/N=C/c1ccccc1	11.9%
OCCCc1nc2ccccc2n1Cc1ccccc1	7.46%
CCOC(=O)c1n[nH]c(=O)c2ccccc12	-9.88%

Compound	hERG current change (%, negative = inhibition) at 10uM
COc1cc(-n2c(=O)c3ccccc3n(Cc3cc(=O)n4ccccc4n3)c2=O)cc(OC)c1OC	-3.63%
Cc1ccc(C(=O)C(C)OC(=O)c2ccc(Cl)nc2)cc1 (stereo not drawn)	-4.4%
COc1cc(NC(=S)NNC(=O)C(C)(C)O)cc(OC)c1	28.6%
CCCCOc1cccc(C(=O)Nc2ccc(NC(=O)c3ccco3)cc2)c1	8.63%
O=C1Nc2ccc(Br)cc2/C1=C/C(=O)c1ccc2c(c1)OCO2	9.53%
CC(C)CNC(=O)[C@H]1N2C(=O)c3ccccc3C2SC1(C)C (stereo partly drawn)	8.23%
O=C(NC1CCCCCC1)C1CCN(S(=O)(=O)c2cnc[nH]2)CC1	8.78%
CCn1c(CNc2ccc(F)cc2)nnc1SCC(=O)Nc1ccc(OC)cc1	-10.8%
CNC(=O)/C(C#N)=C/c1c(N2CCN(c3cccc(Cl)c3)CC2)nc2c(C)cccn2c1=O	9.43%
O=c1c2cnn(-c3ccccc3)c2ncn1Cc1cccc(Cl)c1	17.7%
CC(C)CCOc1ccc(C2=NNC(=O)CC2)cc1	-1%
Cc1cccc(/C=N/NC(=O)C2CCCNC2=O)c1 (stereo not drawn)	19%
COc1ccc(CCCNC(=O)C2CCC(=O)N(CCc3cccc(F)c3)C2)cc1 (stereo not drawn)	-53.1%
CCCNS(=O)(=O)c1ccc(OCC(=O)NCCCOC)cc1	16.9%
COc1ccc(-c2nc(-c3ccc(Br)cc3)no2)c(OC)c1	-3.97%
Cc1ccc(NC(=O)C2=C(O)CCn3c2nc2ccccc23)cc1	0.473%
Cc1nn(-c2ccc3ccccc3c2)c(=O)c2ccccc12	16.8%
CC(C)CCn1c2ccccc2c2cc(CC(N)=O)ccc21	6.69%
Cc1csc(SCCN2C(=O)c3ccccc3C2=O)n1	2.6%
COc1ccc(Cc2nc3ccc(C(=O)NC4CCOC4)cc3o2)cc1 (stereo not drawn)	15.1%
Cc1ccc(C(=O)NCCCc2ccccc2)c(C)c1	1.29%
CC1(C)CC(=O)C(C=Nc2ccccc2Sc2ccccc2)=C(O)C1	-4.14%
